Experimental data from the supplement of paper PMC8728848.
This is one part of the list.

What was measured:
Test in all cases: glycan array binding signal (z-score within array); higher = stronger binding
Details in all cases: glycan notation: IUPAC condensed, linker removed
[1] = molecular target: Gal(b1-3)[Fuc(a1-4)]GlcNAc(b1-6)GalNAc
Summary of the method: (§1)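 The binding signal is a Z-score computed within each array and averaged over linkers. Arrays of the same protein sequence at different concentrations or buffers were also averaged together. Data originate from 3228 arrays in the Consortium for Functional Glycomics database, kept only where the protein sequence was available.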

[2] = molecular target: Gal(b1-3)[GlcNAc(b1-6)]GalNAc
Summary of the method: as §1

[3] = molecular target: Gal(b1-3)[Neu5Ac(a2-6)]GalNAc
Summary of the method: as §1

[4] = molecular target: Gal(b1-3)[Neu5Ac(a2-6)]GlcNAc(b1-4)Gal(b1-4)Glc
Summary of the method: as §1

[5] = molecular target: Gal(b1-3)[Neu5Ac(b2-6)]GalNAc
Summary of the method: as §1

Gal(b1-4)Gal = molecular target: Gal(b1-4)Gal
Summary of the method: as §1

[6] = molecular target: Gal(b1-4)GalNAc(a1-3)[Fuc(a1-2)]Gal(b1-4)GlcNAc
Summary of the method: as §1

[7] = molecular target: Gal(b1-4)GalNAc(b1-3)[Fuc(a1-2)]Gal(b1-4)GlcNAc
Summary of the method: as §1

Gal(b1-4)Glc = molecular target: Gal(b1-4)Glc
Summary of the method: as §1

Gal(b1-4)Glc6S = molecular target: Gal(b1-4)Glc6S
Summary of the method: as §1

Gal(b1-4)GlcNAc = molecular target: Gal(b1-4)GlcNAc
Summary of the method: as §1

[8] = molecular target: Gal(b1-4)GlcNAc(a1-6)Gal(b1-4)GlcNAc
Summary of the method: as §1

Gal(b1-4)GlcNAc(b1-2)Man = molecular target: Gal(b1-4)GlcNAc(b1-2)Man
Summary of the method: as §1

[9] = molecular target: Gal(b1-4)GlcNAc(b1-2)Man(a1-3)Man(b1-4)GlcNAc(b1-4)GlcNAc
Summary of the method: as §1

[10] = molecular target: Gal(b1-4)GlcNAc(b1-2)Man(a1-3)[Gal(b1-4)GlcNAc(b1-2)Man(a1-6)]Man(b1-4)GlcNAc(b1-4)GlcNAc
Summary of the method: as §1

[11] = molecular target: Gal(b1-4)GlcNAc(b1-2)Man(a1-3)[Gal(b1-4)GlcNAc(b1-2)Man(a1-6)]Man(b1-4)GlcNAc(b1-4)[Fuc(a1-6)]GlcNAc
Summary of the method: as §1

[12] = molecular target: Gal(b1-4)GlcNAc(b1-2)Man(a1-3)[Gal(b1-4)GlcNAc(b1-2)Man(a1-6)][Gal(b1-4)GlcNAc(b1-4)]Man(b1-4)GlcNAc(b1-4)[Fuc(a1-6)]GlcNAc
Summary of the method: as §1

[13] = molecular target: Gal(b1-4)GlcNAc(b1-2)Man(a1-3)[Gal(b1-4)GlcNAc(b1-2)Man(a1-6)][GlcNAc(b1-4)]Man(b1-4)GlcNAc(b1-4)[Fuc(a1-6)]GlcNAc
Summary of the method: as §1

[14] = molecular target: Gal(b1-4)GlcNAc(b1-2)Man(a1-3)[GlcNAc(b1-2)Man(a1-6)]Man(b1-4)GlcNAc(b1-4)GlcNAc
Summary of the method: as §1

[15] = molecular target: Gal(b1-4)GlcNAc(b1-2)Man(a1-3)[GlcNAc(b1-4)][Gal(b1-4)GlcNAc(b1-2)Man(a1-6)]Man(b1-4)GlcNAc(b1-4)GlcNAc
Summary of the method: as §1

[16] = molecular target: Gal(b1-4)GlcNAc(b1-2)Man(a1-3)[Man(a1-6)]Man(b1-4)GlcNAc(b1-4)GlcNAc
Summary of the method: as §1

[17] = molecular target: Gal(b1-4)GlcNAc(b1-2)Man(a1-6)Man(b1-4)GlcNAc(b1-4)GlcNAc
Summary of the method: as §1

[18] = molecular target: Gal(b1-4)GlcNAc(b1-2)Man(a1-6)[GlcNAc(b1-2)Man(a1-3)]Man(b1-4)GlcNAc(b1-4)GlcNAc
Summary of the method: as §1

[19] = molecular target: Gal(b1-4)GlcNAc(b1-2)Man(a1-6)[Man(a1-3)]Man(b1-4)GlcNAc(b1-4)GlcNAc
Summary of the method: as §1

[20] = molecular target: Gal(b1-4)GlcNAc(b1-2)[Gal(b1-4)GlcNAc(b1-4)]Man(a1-3)[Gal(b1-4)GlcNAc(b1-2)Man(a1-6)]Man(b1-4)GlcNAc(b1-4)GlcNAc
Summary of the method: as §1

[21] = molecular target: Gal(b1-4)GlcNAc(b1-2)[Gal(b1-4)GlcNAc(b1-4)]Man(a1-3)[Gal(b1-4)GlcNAc(b1-2)[Gal(b1-4)GlcNAc(b1-6)]Man(a1-6)]Man(b1-4)GlcNAc(b1-4)GlcNAc
Summary of the method: as §1

[22] = molecular target: Gal(b1-4)GlcNAc(b1-2)[Gal(b1-4)GlcNAc(b1-4)]Man(a1-3)[GlcNAc(b1-4)][Gal(b1-4)GlcNAc(b1-2)Man(a1-6)]Man(b1-4)GlcNAc(b1-4)GlcNAc
Summary of the method: as §1

[23] = molecular target: Gal(b1-4)GlcNAc(b1-2)[Gal(b1-4)GlcNAc(b1-4)]Man(a1-3)[GlcNAc(b1-4)][Gal(b1-4)GlcNAc(b1-2)[Gal(b1-4)GlcNAc(b1-6)]Man(a1-6)]Man(b1-4)GlcNAc(b1-4)GlcNAc
Summary of the method: as §1

[24] = molecular target: Gal(b1-4)GlcNAc(b1-2)[Gal(b1-4)GlcNAc(b1-6)]Man(a1-6)[Gal(b1-4)GlcNAc(b1-2)Man(a1-3)]Man(b1-4)GlcNAc(b1-4)GlcNAc
Summary of the method: as §1

[25] = molecular target: Gal(b1-4)GlcNAc(b1-2)[Gal(b1-4)GlcNAc(b1-6)]Man(a1-6)[Gal(b1-4)GlcNAc(b1-2)Man(a1-3)]Man(b1-4)GlcNAc(b1-4)[Fuc(a1-6)]GlcNAc
Summary of the method: as §1

[26] = molecular target: Gal(b1-4)GlcNAc(b1-2)[Gal(b1-4)GlcNAc(b1-6)]Man(a1-6)[GlcNAc(b1-4)][Gal(b1-4)GlcNAc(b1-2)Man(a1-3)]Man(b1-4)GlcNAc(b1-4)GlcNAc
Summary of the method: as §1

[27] = molecular target: Gal(b1-4)GlcNAc(b1-2)[Gal(b1-4)GlcNAc(b1-6)]Man(a1-6)[GlcNAc(b1-4)][Gal(b1-4)GlcNAc(b1-2)[Gal(b1-4)GlcNAc(b1-4)]Man(a1-3)]Man(b1-4)GlcNAc(b1-4)[Fuc(a1-6)]GlcNAc
Summary of the method: as §1

[28] = molecular target: Gal(b1-4)GlcNAc(b1-3)Gal(b1-3)GalNAc
Summary of the method: as §1

[29] = molecular target: Gal(b1-4)GlcNAc(b1-3)Gal(b1-3)GlcNAc
Summary of the method: as §1

[30] = molecular target: Gal(b1-4)GlcNAc(b1-3)Gal(b1-4)Glc
Summary of the method: as §1

[31] = molecular target: Gal(b1-4)GlcNAc(b1-3)Gal(b1-4)GlcNAc
Summary of the method: as §1

[32] = molecular target: Gal(b1-4)GlcNAc(b1-3)Gal(b1-4)GlcNAc(b1-2)Man(a1-3)[Gal(b1-4)GlcNAc(b1-3)Gal(b1-4)GlcNAc(b1-2)Man(a1-6)]Man(b1-4)GlcNAc(b1-4)GlcNAc
Summary of the method: as §1

[33] = molecular target: Gal(b1-4)GlcNAc(b1-3)Gal(b1-4)GlcNAc(b1-2)Man(a1-3)[Gal(b1-4)GlcNAc(b1-3)Gal(b1-4)GlcNAc(b1-2)Man(a1-6)]Man(b1-4)GlcNAc(b1-4)[Fuc(a1-6)]GlcNAc
Summary of the method: as §1

B1: Cohesin-mDCIR (Macaca mulatta) (protein)
chain: GLDDLDAVRIKVDTVNAKPGDTVRIPVRFSGIPSKGIANCDFVYSYDPNVLEIIEIEPGDIIVDPNPDKSFDTAVYPDRKIIVFLFAEDSGTGAYAITKDGVFATIVAKVKEGAPNGLSVIKFVEVGGFANNDLVEQKTQFFDGGVNVGDTTEPATPTTPVTTPTTTDDLDAASFQKYSQLLEKMTTKDLVHTTLECVKKNMTTEETAWSCCPKNWKPFSSNCYFISTESASWQKSEKDCARMEAHLLVINTREEQDFIFQNLQEESAYFVGLSDPEGQRHWQWVDRTPYNESSTFWHPHEPSDPDERCVVLNFRKTPKRWGWNDVHCIVHQRSVCEMMKIHLHHHHHH
glycan array binding signal (z-score) [1]: -0.084
glycan array binding signal (z-score) [2]: -0.347
glycan array binding signal (z-score) [3]: -0.312
glycan array binding signal (z-score) [4]: -0.388
glycan array binding signal (z-score) [5]: -0.333
glycan array binding signal (z-score) (Gal(b1-4)Gal): -0.352
glycan array binding signal (z-score) [6]: -0.258
glycan array binding signal (z-score) [7]: -0.103
glycan array binding signal (z-score) (Gal(b1-4)Glc): -0.246
glycan array binding signal (z-score) (Gal(b1-4)Glc6S): -0.318
glycan array binding signal (z-score) (Gal(b1-4)GlcNAc): -0.235
glycan array binding signal (z-score) [8]: -0.278
glycan array binding signal (z-score) (Gal(b1-4)GlcNAc(b1-2)Man): -0.029
glycan array binding signal (z-score) [9]: -0.334
glycan array binding signal (z-score) [10]: -0.28
glycan array binding signal (z-score) [11]: -0.178
glycan array binding signal (z-score) [12]: -0.358
glycan array binding signal (z-score) [13]: -0.464
glycan array binding signal (z-score) [14]: -0.027
glycan array binding signal (z-score) [15]: -0.333
glycan array binding signal (z-score) [16]: -0.368
glycan array binding signal (z-score) [17]: -0.323
glycan array binding signal (z-score) [18]: -0.149
glycan array binding signal (z-score) [19]: -0.405
glycan array binding signal (z-score) [20]: -0.445
glycan array binding signal (z-score) [21]: -0.431
glycan array binding signal (z-score) [22]: -0.427
glycan array binding signal (z-score) [23]: -0.417
glycan array binding signal (z-score) [24]: -0.09
glycan array binding signal (z-score) [25]: -0.269
glycan array binding signal (z-score) [26]: -0.439
glycan array binding signal (z-score) [27]: -0.425
glycan array binding signal (z-score) [28]: -0.443
glycan array binding signal (z-score) [29]: -0.404
glycan array binding signal (z-score) [30]: -0.311
glycan array binding signal (z-score) [31]: -0.251
glycan array binding signal (z-score) [32]: 4.39
glycan array binding signal (z-score) [33]: -0.21
